Data on 88 compounds can be found in PMC4336329 (PLoS ONE, 2015).

Each structure is given as a SMILES string. Out of some 310,000 compounds screened, about 2,200 (0.71%) showed an effect of 50% or more. The effect is printed as a negative number. The list shows a part of the results.

The target in the assay is human ether-à-go-go-related gene (hERG) potassium channel (human, UniProt Q12809). The assay can be described thus: primary screen, population patch clamp on CHO cells stably expressing hERG.
Chain of human ether-à-go-go-related gene (hERG) potassium channel (Q12809 whole entry, looked up): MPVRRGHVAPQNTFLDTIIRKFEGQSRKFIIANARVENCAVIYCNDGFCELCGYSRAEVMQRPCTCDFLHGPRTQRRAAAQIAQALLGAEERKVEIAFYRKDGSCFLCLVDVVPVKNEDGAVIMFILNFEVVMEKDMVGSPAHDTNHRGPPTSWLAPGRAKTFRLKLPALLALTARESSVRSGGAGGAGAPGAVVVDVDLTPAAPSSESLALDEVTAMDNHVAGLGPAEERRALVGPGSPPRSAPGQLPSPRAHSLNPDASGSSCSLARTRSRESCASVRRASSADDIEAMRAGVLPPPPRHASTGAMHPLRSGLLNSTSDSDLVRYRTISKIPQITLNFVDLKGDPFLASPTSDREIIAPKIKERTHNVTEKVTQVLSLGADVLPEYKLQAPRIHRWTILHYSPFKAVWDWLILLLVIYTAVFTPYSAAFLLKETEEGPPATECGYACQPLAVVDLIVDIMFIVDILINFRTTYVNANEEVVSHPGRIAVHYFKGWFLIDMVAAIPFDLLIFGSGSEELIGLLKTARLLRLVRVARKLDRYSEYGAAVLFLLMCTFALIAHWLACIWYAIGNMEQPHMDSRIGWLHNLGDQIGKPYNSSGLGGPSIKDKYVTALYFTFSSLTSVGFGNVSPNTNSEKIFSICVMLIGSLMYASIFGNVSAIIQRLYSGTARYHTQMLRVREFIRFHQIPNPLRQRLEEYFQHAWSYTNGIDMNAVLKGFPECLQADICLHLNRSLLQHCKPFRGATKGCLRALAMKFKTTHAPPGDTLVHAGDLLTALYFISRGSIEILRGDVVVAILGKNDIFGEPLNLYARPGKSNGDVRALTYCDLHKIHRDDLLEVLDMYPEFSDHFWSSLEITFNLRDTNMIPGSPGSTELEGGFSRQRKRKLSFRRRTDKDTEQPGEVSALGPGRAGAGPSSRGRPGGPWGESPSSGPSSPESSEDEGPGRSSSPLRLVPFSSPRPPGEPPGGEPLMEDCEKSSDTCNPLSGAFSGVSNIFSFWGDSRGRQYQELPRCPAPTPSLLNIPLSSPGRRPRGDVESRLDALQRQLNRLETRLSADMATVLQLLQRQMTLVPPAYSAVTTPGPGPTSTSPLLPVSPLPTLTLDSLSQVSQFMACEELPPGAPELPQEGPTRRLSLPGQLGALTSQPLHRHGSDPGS
Turning to `Fc1ccc(-c2nnc(Cc3ccc(Cl)cc3)o2)cc1`, the “hERG current change (%, negative = inhibition) at 1uM” value came out at 2.18%.
Next, `Cc1ccc(-n2c(C)cc(C(=O)Cn3nc(C(=O)O)c4ccccc4c3=O)c2C)cc1`: 17.1%; `COc1ccc(OC)c(S(=O)(=O)N2CCCCC2C(=O)N2CCN(c3ccccn3)CC2)c1` (stereo not shown): -18.2%.
In the case of `CCOC(=O)CC(=O)Nc1ccc(Br)cc1C(=O)O`, the “hERG current change (%, negative = inhibition) at 1uM” value is reported as -2.84%.
The figure for `O=C(CCn1nc(-c2ccc(Cl)cc2)ccc1=O)N1CCOCC1` is 2.56%; for `CCN(CC)P(=O)(Oc1cccc(C)c1)N(CC)CC` it is 7.71%.
The figure for `Cc1ccccc1NS(=O)(=O)c1nnc(NC(=O)c2ccc(Cl)cc2)s1` is 4.38%; for `CCCCC(CC)CNC(=O)Cn1c(=S)[nH]c2ncccc2c1=O` (stereo not shown) it is 9.91%.
The figure for `O=C(Nc1ccccc1Cl)Nc1ccnn1C1CCN(C(=O)c2cscn2)CC1` is 18.1%; for `C=C1c2cc(C)c(C)cc2NC(=O)N1c1ccccc1` it is 19.5%; for `Cc1cc(S(=O)(=O)N2CCCCC2CCNC(=O)C(=O)NCc2cccnc2)ccc1F` (stereo not shown) it is 7.01%.
As for `O=[N+]([O-])c1ccc(Oc2ccc(Oc3ccc(C(F)(F)F)cn3)cc2)nc1`, the “hERG current change (%, negative = inhibition) at 1uM” value was determined as 13.5%.
Regarding `CCOCCCNC(=O)C(NC(=O)c1cnccn1)c1ccc(OC)cc1` (stereo not shown), the “hERG current change (%, negative = inhibition) at 1uM” value amounted to 9.56%.
Take `N#Cc1cc2c(nc1SCc1cccc(Cl)c1)CCCCC2`: the “hERG current change (%, negative = inhibition) at 1uM” value turned out to be 9.9%.
The figure for `O=C(NC12CC3CC(CC(C3)C1)C2)c1cccnc1` is -4.04%; for `COc1cccc(C2SCC(=O)N2c2ccc(C)cc2)c1OC` (stereo not shown) it is -1.11%; for `COc1ccc(C(=O)N/C(N)=N/c2nc3ccccc3o2)cc1` it is 3.02%.
On to `COC(=O)c1c(NC(=O)c2ccnn2C)sc(C)c1C`, for which the “hERG current change (%, negative = inhibition) at 1uM” value is listed as 4.23%.
Turning to `COc1ccc(-c2noc(CCCC(=O)Nc3ccc(C(N)=O)cc3)n2)cc1OC`, the “hERG current change (%, negative = inhibition) at 1uM” value came to 4.34%.
Next, `O=C(O)CCN(CCC(=O)O)c1ccccc1`: 4.84%; `C#CCOCCOCCOCCNc1nc(N2CCN(C(=O)CCCCCCCCCCNC(=O)[C@H](CO)n3cc(CCCSC)nn3)CC2)nc(N2CCN(C(=O)CCCCCCCCCCNC(=O)[C@@H]([C@H](C)O)n3cc(C)nn3)CC2)n1`: 12.9%.
Regarding `Cc1ccc2c(CN3CCCCC3CCO)cc(=O)oc2c1` (stereo not shown), the “hERG current change (%, negative = inhibition) at 1uM” value was -2.35%.
For the compound `CC(NC(=O)Cc1cccc(C(F)(F)F)c1)c1ccc(F)cc1` (stereo not shown), the “hERG current change (%, negative = inhibition) at 1uM” value was 11.9%.
Next, `Cc1ccc(S(=O)(=O)N2CCN(C(=O)c3ccccc3)C2C(C)C)cc1` (stereo not shown): 11%.
As to `Cc1nc(NNC(=O)c2ccc(Cl)cc2Cl)cc(-c2ccccc2)n1`, the “hERG current change (%, negative = inhibition) at 1uM” value is given as 3.93%.
As to `CCCCn1c(N)c(N(CCOC)C(=O)COC(=O)/C=C/c2ccc(Br)cc2)c(=O)[nH]c1=O`, the “hERG current change (%, negative = inhibition) at 1uM” value was 2.34%.
As to `COc1ccc(OC)c(CC(NC(C)=O)C(=O)NC2CCN(S(=O)(=O)c3ccc(NC(C)=O)cc3)CC2)c1` (stereo not shown), the “hERG current change (%, negative = inhibition) at 1uM” value is -0.398%.
The figure for `CC(=O)c1cccc(NC(=O)c2ccc(S(=O)(=O)N3CC(C)OC(C)C3)cc2)c1` (stereo not shown) is 13.7%; for `COCCNC(=S)N(C)C1(c2ccccc2Cl)CCCCC1=O` (stereo not shown) it is 20.8%; for `Cn1c(-c2ccc(C(F)(F)F)cc2)cc2onc(-c3ccccc3)c2c1=O` it is 9.26%.
The figure for `O=[N+]([O-])c1ccc(C2C3C(c4ccccc4)=NC4(CCCCC4)N32)cc1` (stereo not shown) is -0.742%; for `Cc1ccc(C)n1-n1cnc2sc3c(c2c1=O)CCC3` it is 13.9%; for `CCc1nnc(NC(=O)c2ccc(S(=O)(=O)N(C)Cc3ccccc3)cc2)o1` it is 5.74%.
`CCCC(=O)N(CCc1ccccc1)Cc1nc2ccccc2c(=O)[nH]1`: the “hERG current change (%, negative = inhibition) at 1uM” value turned out to be 4.21%.
Turning to `COc1ccc(CNC(=O)/C=C/c2ccc(OCCCF)cc2)cc1OC`, the “hERG current change (%, negative = inhibition) at 1uM” value is on record as 3.81%.
Next, `CC(/C=N/NC(=O)Cc1cccn1C)=C\c1ccccc1`: -1.81%.
Take `Cn1nnnc1SCC(=O)Nc1ccc(Br)cc1Cl`: the “hERG current change (%, negative = inhibition) at 1uM” value was 4.24%.
For the compound `CCCCC(=O)Nc1ccc(NC(=O)c2cccs2)cn1`, the “hERG current change (%, negative = inhibition) at 1uM” value is on record as -0.0253%.
Next, `COc1ccc(C(=O)N/C(=C\c2ccc([N+](=O)[O-])cc2)C(=O)NC(CCSC)C(=O)O)cc1` (stereo not shown): 11.8%.
Next, `O=C(CSc1ccc(-c2ccccn2)nn1)c1ccc([N+](=O)[O-])cc1`: 11.3%.
On to `COc1ccc(OC)c(N2C(=O)CC(Cc3cc(C)cc(C)c3)C2=O)c1` (stereo not shown), for which the “hERG current change (%, negative = inhibition) at 1uM” value turned out to be 5.71%.
The figure for `CN(C)CCCN(C(=O)c1ccco1)c1nc2ccc(F)cc2s1.Cl` is -37.4%; for `CN(Cc1ccc(N(C)C)cc1)C(=O)c1cc2ccccc2o1` it is 8.08%; for `Cc1ccc2nsnc2c1S(=O)(=O)NCCc1c(C)[nH]c2ccc(F)cc12` it is -1.76%.
As for `[O-]/C(=C(\C(=S)Nc1ccc(SC(F)F)cc1)[n+]1cccc(CO)c1)c1ccc(Cl)s1`, the “hERG current change (%, negative = inhibition) at 1uM” value is recorded as 7.35%.
In the case of `CCOCc1nnc(NC(=O)C2c3ccccc3Oc3ccccc32)s1`, the “hERG current change (%, negative = inhibition) at 1uM” value came to 19.5%.
For `CCOCC(=O)Nc1c(C(=O)Nc2ccc3c(c2)OCCO3)oc2ccccc12`, the “hERG current change (%, negative = inhibition) at 1uM” value amounted to 7.78%.
The figure for `COc1ccc(N2CCN(C(=O)CCCC3=NS(=O)(=O)c4ccccc4N3)CC2)cc1` is 4.16%.
Next, `CSC1=NCCN1C(=O)C(C)Oc1ccccc1` (stereo not shown): 19.4%; `CCC(C)NC(=O)CSC1=Nc2ccccc2C2=NC(c3ccccc3)C(=O)N12` (stereo not shown): -17.7%; `COC(=O)c1c(-c2c(Cl)cccc2Cl)noc1NC(=O)N(C)C`: 23%.
Next, `Cc1sc2nc(CN(Cc3ccccc3)C(=O)NC3CCCCC3)[nH]c(=O)c2c1C`: 6.82%; `C=CCSc1nc2c(c(C3CC=CCC3)c1C#N)CCC2` (stereo not shown): 14.5%; `Cc1csc(NC(=O)C2CCN(S(=O)(=O)c3cccs3)CC2)n1`: -2.21%.
Consider `COc1ccc(N(CC(=O)N2CCN(c3ccccc3F)CC2)S(=O)(=O)c2c(C)noc2C)cc1`, for which the “hERG current change (%, negative = inhibition) at 1uM” value is 15.3%.
Next, `CC(C)N(Cc1ccccc1)C(=O)COc1ccccc1`: 7.8%.
For `CCOC(=O)c1cnc(-n2[nH]c(C)c(Cc3ccccc3)c2=O)[nH]c1=O`, the “hERG current change (%, negative = inhibition) at 1uM” value came out at 5.51%.
As to `CCCNC(=O)Nc1cc(C)on1`, the “hERG current change (%, negative = inhibition) at 1uM” value amounted to 15.3%.
Turning to `CCC(=O)Nc1nnc(Cc2ccccc2)s1`, the “hERG current change (%, negative = inhibition) at 1uM” value was 5.92%.
The figure for `COc1ccccc1-c1cc(-c2ccccc2)nc(SC(C(N)=O)c2ccccc2)c1C#N` (stereo not shown) is 17.2%.
Next, `CCCC(=O)Nc1ccc(C(=O)O)cc1NC(=O)CCC`: 10.8%; `COc1ccccc1OCCNC(=O)C(=O)c1c[nH]c2ccccc12`: 2.99%; `COC(=O)C(CC(=O)c1ccc(C)cc1)n1cccn1` (stereo not shown): 9.45%.
On to `C=CCN1C(=O)NC2(O)C(=O)c3ccccc3C12O` (stereo not shown), for which the “hERG current change (%, negative = inhibition) at 1uM” value is 7.82%.
The figure for `Cc1nnc(Sc2c(-c3ccccc3)c3ccc(Cl)cc3[nH]c2=O)s1` is 6.04%; for `COc1ccc2nc(C)cc(SCC(=O)Nc3c(C)cccc3C)c2c1` it is 11.4%.
`C#CCOc1ccccc1CNc1ccccc1`: the “hERG current change (%, negative = inhibition) at 1uM” value was found to be 12.5%.
The figure for `COc1ccc(-c2csc(NC(=O)CCCc3cccs3)n2)cc1` is 8.28%.
The figure for `Cc1ccc(C)c(N2CCN(C(=O)c3cc4sccc4n3C)CC2)c1` is 8.32%; for `Cc1ccc(-n2c(-c3ccco3)nc3nc4ccccc4nc32)cc1F` it is 1.67%; for `O=c1[nH]c(CSc2ncnc3sccc23)nc2ccccc12` it is 11%.
Next, `COc1cn(-c2ccccc2)nc1C(=O)NCc1ccccc1`: 9.39%.
For `Fc1ccc(C(c2nnnn2Cc2cccs2)N2CCN(c3ccccc3)CC2)cc1` (stereo not shown), the “hERG current change (%, negative = inhibition) at 1uM” value is 3.79%.
`Cc1ccc2c(c1)N(CC(=O)N1CCCCC1)C(=O)CO2`: the “hERG current change (%, negative = inhibition) at 1uM” value was determined as 3.2%.
As for `CC(C)c1cccc(C(C)C)c1NC(=O)COc1nncc2ccccc12`, the “hERG current change (%, negative = inhibition) at 1uM” value was 12.6%.
The figure for `Cc1cc(=O)[nH]c(SCC(=O)OCc2ccccc2)c1C#N` is 10.9%.
`CCC(C)[C@H]1COCCS(=O)(=O)N1Cc1ccc(C)cc1` (stereo partly shown): the “hERG current change (%, negative = inhibition) at 1uM” value was -0.569%.
As for `Cc1ccc(CNC(=O)c2cc(-c3ccccc3)nn2CC2CC(c3cccc([N+](=O)[O-])c3)=NO2)cc1` (stereo not shown), the “hERG current change (%, negative = inhibition) at 1uM” value came to 24.3%.
Next, `COC(=O)c1c[nH]n2c(=O)c(C(C)C)c(C)nc12`: 7.4%; `CCN1CCN(Cc2c3ccccc3cc3ccccc23)CC1`: 13.1%.
`Cc1cccc(-n2ccc(=O)c(C(=O)Nc3ccc(S(=O)(=O)N4CCOCC4)cc3)n2)c1`: the “hERG current change (%, negative = inhibition) at 1uM” value worked out at 10.2%.
The figure for `COc1cc(/C=N/N=C2/NC(=O)C(CC(=O)O)S2)ccc1OCc1cccc(Cl)c1` (stereo not shown) is 11.6%; for `O=C(Cn1nc(-c2ccccc2)ccc1=O)Nc1ccc(-n2cnnn2)cc1` it is 9.23%.
As for `CC(=O)c1ccc(S(=O)(=O)N2CCC3(CC2)CC(=O)c2ccccc2O3)cc1`, the “hERG current change (%, negative = inhibition) at 1uM” value is listed as -11%.
Regarding `COCc1[nH][nH]c(=O)c1C=Nc1ccc(OC(F)(F)F)cc1`, the “hERG current change (%, negative = inhibition) at 1uM” value is reported as -16.1%.
Regarding `CCOC(=O)c1ccccc1NC(=O)c1ccc2c(SCC(=O)O)c3c(nc2c1)CCCC3`, the “hERG current change (%, negative = inhibition) at 1uM” value stood at 16.1%.
Regarding `COc1ccc(CCC(=O)N2CC(C)OC(C)C2)cc1` (stereo not shown), the “hERG current change (%, negative = inhibition) at 1uM” value was determined as 0.126%.
Regarding `CC(C)COc1ncnc2c1sc1nc3c(cc12)COC(C)(C)C3`, the “hERG current change (%, negative = inhibition) at 1uM” value amounted to 6.63%.
